Where a name gives a salt, the structure may show the parent alone.
Target: T1, recombinant AXL with the NTD of the spike protein (Homo sapiens, UniProt P30530)
T1 sequence (P30530 26-451 limits assumed): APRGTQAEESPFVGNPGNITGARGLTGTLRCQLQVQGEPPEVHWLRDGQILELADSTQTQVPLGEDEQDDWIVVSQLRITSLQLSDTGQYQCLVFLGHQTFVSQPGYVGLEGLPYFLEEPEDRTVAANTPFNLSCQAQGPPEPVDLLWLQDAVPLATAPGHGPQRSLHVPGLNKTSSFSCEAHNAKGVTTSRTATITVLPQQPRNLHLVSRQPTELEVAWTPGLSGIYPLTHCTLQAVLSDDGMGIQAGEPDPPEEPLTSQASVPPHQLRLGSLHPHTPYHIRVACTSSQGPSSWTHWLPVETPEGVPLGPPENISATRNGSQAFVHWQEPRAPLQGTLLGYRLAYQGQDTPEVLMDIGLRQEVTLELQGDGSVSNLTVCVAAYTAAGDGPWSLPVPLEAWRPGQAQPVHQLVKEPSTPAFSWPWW
Format: binding
Conditions: micromolar range

SMILES | effect on interaction of recombinant AXL with the NTD of the spike protein
Nc1c(Br)cc(Br)cc1CN[C@H]1CC[C@H](O)CC1 [AMB, 4-[(2-amino-3,5-dibromophenyl)methylamino]cyclohexan-1-ol; hydrochloride] | inhibit
CN(Cc1cc(Br)cc(Br)c1N)C1CCCCC1 [BHH, Bromhexine hydrochloride] | inhibit

— patent US20240285552A1 (priority 2020, published 2024)
